Screen size: about 390,000 compounds; about 910 (0.23%) were called active. About 5% were inconclusive and are not listed. Calls follow the shape of the dose curve; as a rule, active = well fitted inhibition curve with a large enough effect; inconclusive = small, poorly fitted or top-dose-only effect; inactive = no such curve, though single readings can be large or run the other way. The entries are a selection whose mix differs from that of the whole data set.
Target: Ubiquitin carboxyl-terminal hydrolase 1 (Homo sapiens) (UniProt O94782)
Chain of UniProt O94782 (O94782 whole entry, looked up): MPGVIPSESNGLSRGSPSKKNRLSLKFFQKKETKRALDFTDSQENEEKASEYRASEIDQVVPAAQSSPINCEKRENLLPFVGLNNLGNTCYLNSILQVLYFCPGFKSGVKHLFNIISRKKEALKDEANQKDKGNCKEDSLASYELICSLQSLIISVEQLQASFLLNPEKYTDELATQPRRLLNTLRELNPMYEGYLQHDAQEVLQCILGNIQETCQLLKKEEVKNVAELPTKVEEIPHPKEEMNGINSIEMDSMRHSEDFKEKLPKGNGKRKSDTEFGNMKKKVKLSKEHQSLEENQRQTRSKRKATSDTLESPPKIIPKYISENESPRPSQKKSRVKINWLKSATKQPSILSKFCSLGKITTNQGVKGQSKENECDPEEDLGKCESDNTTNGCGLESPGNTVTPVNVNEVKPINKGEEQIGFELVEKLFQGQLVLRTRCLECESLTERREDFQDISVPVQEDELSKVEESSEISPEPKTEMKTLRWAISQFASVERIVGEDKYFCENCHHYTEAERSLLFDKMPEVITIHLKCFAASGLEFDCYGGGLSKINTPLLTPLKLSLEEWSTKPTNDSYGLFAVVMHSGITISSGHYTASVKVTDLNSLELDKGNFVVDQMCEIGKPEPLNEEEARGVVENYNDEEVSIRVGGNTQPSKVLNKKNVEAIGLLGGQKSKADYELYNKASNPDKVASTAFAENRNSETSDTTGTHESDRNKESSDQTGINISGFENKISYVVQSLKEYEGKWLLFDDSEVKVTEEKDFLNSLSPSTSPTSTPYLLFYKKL
Experiment: Inhibitors of USP1/UAF1: Primary Screen; also: nearly all actives have a fitted effect of over 60% in size
Settings: recombinant USP1/UAF1, Ub-Rhodamine cleavage fluorescence; series mostly up to 57.1 µM; activity change, negative = inhibition: at the top concentration
Source text: Deubiquitinating enzymes (DUBs) are a class of enzymes that can cleave isopeptide bond formed between the C-terminal carboxylate of ubiquitin and a lysine side-chain amino group on the target protein. Among them, ubiquitin specific proteases (USPs) constitute the largest DUB family. Human USPs are emerging as promising targets for pharmacological intervention because of their connection to a number of human diseases, including prostate, colon and breast cancer (1, 2), pediatric acute lymphoblastic leukemia (3), and familial cylindromatosis (4). The advantage of inhibiting USPs lies in the potential specificity of therapeutic intervention that can lead to better efficacy and reduce nonspecific side effects. In a collaboration between the University of Delaware and the NIH Chemical Genomics Center, a high-throughput screen assay was developed to screen for USP1/UAF1 inhibitors. This miniaturized assay has a fluorescent read-out and is used to screen the NIH Molecular Libraries Small Molecule Repository (MLSMR) in order to identify a small molecule that inhibits USP1. NIH Chemical Genomics Center [NCGC] NIH Molecular Libraries Probe Centers Network [MLPCN] MLPCN Grant: DA030552 Assay Submitter (PI): Zhihao Zhuang, University of Delaware 1. Priolo, C., et al. (2006) The isopeptidase USP2a protects human prostate cancer from apoptosis. Cancer Res 66, 8625-8632 2. Popov, N., et al. (2007) The ubiquitin-specific protease USP28 is required for MYC stability. Nat Cell Biol 9, 765-774 3. De Pitta, C., et al. (2005) A leukemia-enriched cDNA microarray platform identifies new transcripts with relevance to the biology of pediatric acute lymphoblastic leukemia. Haematologica 90, 890-898 4. Kovalenko, A., et al. (2003) The tumour suppressor CYLD negatively regulates NF-kappaB signalling by deubiquitination. Nature 424, 801-805
3 microliters of reagents (buffer in columns 3 and 4 as negative control and 1nM USP1/UAF1 complex in columns 1, 2, and 5-48) are dispensed into Greiner black solid bottom 1536-well assay plates. Compounds are then transferred via Kalypsys pin tool equipped with 1536-pin array (10nl slotted pins, V&P Scientific, San Diego, CA). Following an incubation step of 15 min at room temperature, 1ul of Ub-Rho substrate (150nM final concentration) is added to initiate the reaction. The plates are immediately centrifuged at 1000 rpm for 15 seconds, and subsequently transferred to a ViewLux high-throughput CCD imager (PerkinElmer) wherein kinetic measurements of fluorescence are acquired using 480 nm excitation/540 nm emission filter set (6 reads every 60 seconds, see Table 1). All reagents are diluted in an assay buffer consisting of 50mM HEPES (pH 7.8), 0.5mM EDTA, 0.1 mg/ml BSA, 1mM TCEP, and 0.01% Tween-20.
% is scaled to controls: 0 for no effect and ±100 for the full control effect; potency is read from the fitted curve at half-maximal effect.

| Compound | activity change, negative = inhibition | Potency |
| --- | --- | --- |
| C[C@H](CO)N1C[C@H](C)[C@@H](CN(C)C(=O)Oc2cccc3ccccc23)OCc2cn(nn2)CCCC1=O | inactive: 9.42% |  |
| COc1ccccc1N1CCN(C(=O)CCS(=O)(=O)c2ccc3c(c2)oc(=O)n3C)CC1 | inactive: -22.4% |  |
| ClCCN(CCCl)c1ccc(C=Cc2ccncn2)cc1 |  | active: 25.1 µM |
| C=C1C(=O)OC2CC(C)C3C=CC(=O)C3(C)C(O)C12 (stereo unspecified) | inactive: -11.3% |  |
| Cc1ccc(OC(=O)N(C)C[C@@H]2OCc3cnnn3CCCC(=O)N([C@H](C)CO)C[C@@H]2C)cc1 | inactive: -16.6% |  |
| Cc1ccccc1N1C(=O)NC(=O)/C(=C/c2ccc(N3CCOCC3)o2)C1=O |  | active: 25.1 µM |
| Cc1cccc(N2C(=O)/C(=C/c3ccc(CN(CCC#N)S(C)(=O)=O)o3)C(=O)NC2=S)c1 |  | active: 25.1 µM |
| COc1cc(CC(C)N)c(OC)cc1I (stereo unspecified) | inactive: -19% |  |
| C[C@]12CC[C@@H](O)C[C@@H]1CC[C@@H]1[C@@H]2CC[C@]2(C)C(=O)CC[C@@H]12 | inactive: -6.61% |  |
| CCC1(OC(=O)c2ccccc2)CC(C)N(C)CC1C (stereo unspecified) | inactive: 41% |  |
| COc1cccc2c1C(=O)c1c(O)c3c(c(O)c1C2=O)CC(O)(C(C)=NO)CC3OC1CC(N)C(O)C(C)O1 (stereo unspecified) |  | active: 25.1 µM |
| C[C@@H]1CN([C@H](C)CO)C(=O)c2cc(NC(=O)Nc3ccc(C(F)(F)F)cc3)ccc2O[C@H]1CN(C)S(=O)(=O)c1cccs1 | inactive: -3.59% |  |
| CN1[C@@H]2CC(OC(=O)[C@H](CO)c3ccccc3)C[C@H]1[C@@H]1O[C@@H]12 (stereo partly specified) |  | inactive |
| O=c1c2ccccc2nc(/C=C/c2ccccc2O)n1-c1ccc(Br)cc1 | inactive: 27.4% |  |
| CC1=NCCc2c1[nH]c1cc(O)ccc21 |  | active: 25.1 µM |
| C[C@]12CCC3C(CC[C@H]4C[C@H](O)CC[C@]34C)C1C[C@@H](O)[C@@H]2O (stereo partly specified) | inactive: -23.8% |  |
| C=C1[C@H]2CC[C@H]3[C@]4(C)C[C@H](O[C@H]5O[C@H](CO)[C@@H](OS(=O)(=O)O)[C@H](OS(=O)(=O)O)[C@H]5OC(=O)CC(C)C)C[C@@H](C(=O)O)[C@H]4CC[C@]3(C2)[C@H]1O | inactive: -16.4% |  |
| C[C@H]1C[C@@H](C)C(=O)[C@@H]([C@H](O)CC2CC(=O)NC(=O)C2)C1 | inactive: -7.1% |  |
| COc1ccc(OC(=O)N(C)C[C@H]2OCc3cnnn3CCCC(=O)N([C@H](C)CO)C[C@@H]2C)cc1 | inactive: -20.7% |  |
| O=[N+]([O-])c1ccc(C2[C@H]3C(c4ccccc4)=NC4(CCCC4)N23)cc1 (stereo partly specified) | inactive: 0.512% |  |
| COc1ccc(OC)c(N2C(=O)NC(=O)/C(=C/c3ccc([N+](=O)[O-])s3)C2=O)c1 |  | active: 15.8 µM |
| CC(C)=CCN1CC[C@@]2(C)c3cc(O)ccc3C[C@@H]1C2C (stereo partly specified) | inactive: -19.1% |  |
| O=[N+]([O-])c1ccc(NCc2ccccc2)c2nonc12 |  | active: 22.4 µM |

| Compound | activity change, negative = inhibition | Potency |
| --- | --- | --- |
| COc1ccc(OC(=O)N(C)C[C@H]2OCc3cnnn3CCCC(=O)N([C@@H](C)CO)C[C@H]2C)cc1 | inactive: -22.9% |  |
| COC(=O)C1=CO[C@@H](C)[C@H]2CN3CC[C@]4(C(=O)Nc5ccccc54)[C@@H]3C[C@H]12 | inactive: 8.22% |  |
| C[C@]12CCC3[C@@H](CC[C@@H]4C[C@H](O)CC[C@]34C)[C@@H]1CCC2=O (stereo partly specified) | inactive: -10.7% |  |
| Nc1ccc2nonc2c1[N+](=O)[O-] |  | active: 31.6 µM |
| C[C@@H]1CN([C@H](C)CO)C(=O)CCCn2nncc2CO[C@H]1CN(C)C(=O)Oc1cccc2ccccc12 | inactive: -11.1% |  |
| CC(C)OCCCNC(=O)c1c(N)n(CC2CCCO2)c2nc3ccccc3nc12 (stereo unspecified) |  | active: 28.2 µM |
| CC1Oc2cc3c(-c4c(O)cc(O)c5c(O)c6c(cc45)OC(C)C(C)C6=O)c(O)cc(O)c3c(O)c2C(=O)C1C (stereo unspecified) |  | active: 12.6 µM |
| COc1ccc(CN2C(=O)NC(=O)/C(=C/c3ccc([N+](=O)[O-])s3)C2=O)cc1 |  | active: 35.5 µM |
| C[C@@H]1C(=O)O[C@H]2CC34[C@H]5C[C@@H](C(C)(C)C)[C@]36[C@@H](OC(=O)[C@@H]6O)O[C@@]4(C(=O)O5)[C@]21O (stereo partly specified) | inactive: 9.34% |  |
| C[C@H]1CCC/C=C/C2C[C@H](O)CC2[C@H](O)/C=C/C(=O)O1 (stereo partly specified) | inactive: 6.26% |  |
| C[C@H]1CN([C@@H](C)CO)C(=O)CCCn2nncc2CO[C@H]1CN(C)C(=O)Oc1cccc2ccccc12 | inactive: -30.9% |  |
| Cc1ccc(OC(=O)N(C)C[C@@H]2OCc3cnnn3CCCC(=O)N([C@H](C)CO)C[C@H]2C)cc1 | inactive: -25.7% |  |
| CCCCn1c(NC(=O)c2ccco2)c(C(=O)OCC)c2nc3ccccc3nc21 |  | active: 25.1 µM |
| C[C@]12CC[C@@H](O)C[C@@H]1CC[C@@H]1[C@@H]2CC[C@]2(C)[C@@H](O)CC[C@@H]12 | inactive: -13.9% |  |
| CC(C)n1c(/C=C/[C@H](O)C[C@H](O)CC(=O)O)c(-c2ccc(F)cc2)c2ccccc21 | inactive: -21.2% |  |
| C[C@]12CCC(=O)C=C1C=CC1C2CC[C@@]2(C)C1CC[C@@H]2O (stereo partly specified) | inactive: -27% |  |
| COc1ccc(OC(=O)N(C)C[C@@H]2OCc3cnnn3CCCC(=O)N([C@H](C)CO)C[C@@H]2C)cc1 | inactive: -9.26% |  |
| CN(C)[C@@H]1C(=O)C(C(N)=O)=C(O)[C@@]2(O)C(=O)C3=C(O)c4c(O)ccc(Cl)c4[C@@](C)(O)[C@H]3C[C@@H]12 | inactive: 9.48% |  |
| CN1CCN(c2ccc([N+](=O)[O-])c3no[n+]([O-])c23)CC1 | inactive: 110% |  |
| C[C@H]1CCC/C=C/[C@@H]2C[C@H](O)C[C@H]2[C@H](O)/C=C/C(=O)O1 | inactive: 13.2% |  |
| C[C@H]1CCC/C=C/[C@@H]2C[C@H](O)C[C@H]2[C@@H](O)/C=C/C(=O)O1 | inactive: -20.6% |  |
| C[C@]12CCC3C(CC[C@H]4C[C@@H](O)CC[C@]34C)C1CC[C@@H]2O (stereo partly specified) | inactive: -0.833% |  |
| CN1C[C@H](C(=O)NC2(C)OC3(O)[C@@H]4CCCN4C(=O)[C@H](Cc4ccccc4)N3C2=O)CC2c3cccc4[nH]cc(c34)C[C@H]21 (stereo partly specified) | inactive: -14.9% |  |

Source: PubChem BioAssay AID743255 (National Center for Advancing Translational Sciences (NCATS), 2014)
